The values below come from article PMC6864063, “Molecular basis for the interaction between human choline kinase alpha and the SH3 domain of the c-Src tyrosine kinase” (Scientific Reports, 2019).

In test [1] the target is T1, c-Src SH3 domain (recombinant, used in SPR) (UniProt P12931-1 part only). Kind of test: SPR; ChoKα Δ49 proteins immobilised on one CM5 chip, Src SH3 injected in triplicate, 2 min association, 2 min dissociation; two-state induced-fit model, KD from the kinetic rate constants. Particulars: both partners purified. In general terms: In SPR one partner is held on a chip, and binding of the other changes the refractive index at the surface.

In test [2] the target is T1, c-Src SH3 domain (recombinant, used in …). In words: SPR; SH3 domains immobilised on one CM5 chip, ChoKα injected in triplicate, 0.1 to 30 µM, 2 min, PBS pH 7.5, 30 µL/min; steady-state KD from RUmax. The note with it: both partners purified.

B1: Choline kinase alpha Δ49 D306A (kinase-dead) (domain or fragment)
chain: not shown
notes: Choline kinase alpha (ChoKα1), human, […], […] with D306A; also called D306A variant of ChoKαΔ49; source: E. coli Rosetta (DE3)pLysS, purified (HisTrap Ni2+ column, S-200 gel filtration); not shown: His6, N-terminal, cleaved; SUMO, N-terminal, cleaved
In general, Kd refers to a measure of binding affinity in units of concentration. For the molecule B1, the Kd in test [1] came to 1.8 µM.

B2: Choline kinase alpha, full-length (FL) wild type (enzyme)
chain: not shown
notes: Choline kinase alpha, unspliced variant ChoKα1, 457 residues, human, […]; full length, up to Val457; Cleaved ChoKα constructs were the probes of the pull-downs; also called ChoKα; ChoKα1; source: E. coli Rosetta (DE3)pLysS, purified (HisTrap Ni2+ column, S-200 gel filtration); not shown: His6, N-terminal, cleaved; SUMO, N-terminal, cleaved
As for B2, the Kd in test [2] was 14.2 µM.
